The text below walks through data of PMC4336329 (PLoS ONE, 2015).

The structures appear in SMILES notation. The campaign covered roughly 310,000 compounds. About 14,000 (4.5%) showed an effect of 50% or more. The effect is printed as a negative number. The list shows a part of the results.
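Further: peak tail current of the secondary pulse compared with the same well before compound.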

The target in this test is human ether-à-go-go-related gene (hERG) potassium channel (human, UniProt Q12809). The test can be described thus: primary screen, population patch clamp on CHO cells stably expressing hERG.
Chain of human ether-à-go-go-related gene (hERG) potassium channel (Q12809 whole entry, looked up): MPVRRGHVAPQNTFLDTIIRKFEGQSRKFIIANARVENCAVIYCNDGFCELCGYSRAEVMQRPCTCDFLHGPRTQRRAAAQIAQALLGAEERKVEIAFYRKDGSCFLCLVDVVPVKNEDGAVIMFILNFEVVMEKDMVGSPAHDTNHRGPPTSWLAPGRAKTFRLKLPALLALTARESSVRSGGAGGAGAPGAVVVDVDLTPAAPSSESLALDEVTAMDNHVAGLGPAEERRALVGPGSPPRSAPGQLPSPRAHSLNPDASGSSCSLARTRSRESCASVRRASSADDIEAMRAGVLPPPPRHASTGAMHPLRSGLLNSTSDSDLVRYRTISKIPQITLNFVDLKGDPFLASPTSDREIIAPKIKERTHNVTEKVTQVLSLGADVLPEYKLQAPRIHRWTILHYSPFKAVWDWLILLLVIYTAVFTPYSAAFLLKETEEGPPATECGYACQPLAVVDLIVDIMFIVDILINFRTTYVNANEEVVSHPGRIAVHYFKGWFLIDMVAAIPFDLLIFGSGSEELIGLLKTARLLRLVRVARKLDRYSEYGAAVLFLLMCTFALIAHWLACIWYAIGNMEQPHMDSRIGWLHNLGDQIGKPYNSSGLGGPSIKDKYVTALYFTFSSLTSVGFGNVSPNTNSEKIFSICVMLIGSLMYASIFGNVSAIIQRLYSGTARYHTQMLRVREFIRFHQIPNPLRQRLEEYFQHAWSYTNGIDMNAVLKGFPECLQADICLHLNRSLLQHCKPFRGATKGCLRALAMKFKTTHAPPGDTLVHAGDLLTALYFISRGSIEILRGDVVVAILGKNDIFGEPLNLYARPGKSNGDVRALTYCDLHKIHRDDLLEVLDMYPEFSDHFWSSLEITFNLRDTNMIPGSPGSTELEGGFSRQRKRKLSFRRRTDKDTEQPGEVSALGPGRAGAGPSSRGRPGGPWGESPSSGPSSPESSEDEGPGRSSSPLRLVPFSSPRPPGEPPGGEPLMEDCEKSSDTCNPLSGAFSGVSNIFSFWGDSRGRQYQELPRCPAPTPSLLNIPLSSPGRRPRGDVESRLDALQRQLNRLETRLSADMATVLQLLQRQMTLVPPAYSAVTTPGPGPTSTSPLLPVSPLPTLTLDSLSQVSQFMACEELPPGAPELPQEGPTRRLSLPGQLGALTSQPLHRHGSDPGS
`COc1cc(NC(=O)c2ccccc2)c(OC)cc1NC(=O)Cc1ccc(Br)cc1`: the “hERG current change (%, negative = inhibition) at 10uM” value amounted to 18.8%. For `COc1cccc(NC(=S)NN2CCN(C)CC2)c1` the value was 6.84%; for `O=C(NC(=S)Nc1cccnc1)c1cc2ccccc2o1`, 9.86%; for `CC(Cc1ccccc1)[n+]1cc(/N=C(\N)[O-])on1` (stereo not drawn), 19.3%.

Take `CCOc1ncccc1C(=O)OCC(=O)Nc1cccc(S(N)(=O)=O)c1`: the “hERG current change (%, negative = inhibition) at 10uM” value amounted to 14.9%. Turning to `O=C(CN1CCC(n2nnc3cc(C(F)(F)F)ccc32)CC1)N1CCc2ccccc21`, the “hERG current change (%, negative = inhibition) at 10uM” value was -19.9%. With `CN(C1CCCCC1)S(=O)(=O)c1ccc2c(c1)c(=O)c(C(=O)NCCN1CCCC1)cn2C` the figure was -27.7%; with `COc1ccc(NC(=S)NNC(=O)OC(C)(C)C)cc1OC`, 11.1%. For `CCOC(=O)c1c(C)c(C(=O)NCCN2CCOCC2)c(C)n1CC` the value was 0.0858%; for `O=C(COn1nnc2ccccc21)N1CCN(Cc2ccccc2)CC1`, 2.76%. With `O=C(CC12CC3CC(CC(C3)C1)C2)N1CCN(S(=O)(=O)c2cccs2)CC1` the figure was -3.18%; with `COc1ccc(CNC(=O)C2CCCN(S(=O)(=O)N3CCC(C)CC3)C2)c(OC)c1` (stereo not drawn), 37.7%. With `CCCCn1c(SCC(=O)NCc2ccco2)nnc1-c1ccoc1C`, the “hERG current change (%, negative = inhibition) at 10uM” value came out at 6.03%.

For `CCCN(CCC)CCCNC(=O)CNC(=O)c1nn(-c2ccc(OC)cc2)c(=O)c2ccccc12`, the “hERG current change (%, negative = inhibition) at 10uM” value is listed as -20.2%. With `COc1cc(-c2nnc(SCc3cccnc3)n2C)cc(OC)c1O` the figure was -5.33%; with `O=C(C(Cl)Cl)N1c2ccccc2OCC1c1ccccc1` (stereo not drawn), -7.13%; with `COc1ccccc1CN1CC(C(=O)NCc2ccc(N3CCCC3=O)cc2)CCC1=O` (stereo not drawn), 26.9%. For `Cc1cc(SCC2=NNC(=O)C2)c(Cl)cc1Cl` the value was 2.95%.

As for `Cc1ccc2c(c1)CC1(CN2C)C(=O)NC(=O)N(c2cc(C)ccc2C)C1=O` (stereo not drawn), the “hERG current change (%, negative = inhibition) at 10uM” value is recorded as -0.306%.

For `CCOc1cc(CNn2cn[nH]c2=S)cc(Cl)c1OCc1ccccc1F`, the “hERG current change (%, negative = inhibition) at 10uM” value is recorded as 10.8%. As for `O=C(Nc1ccccc1C(F)(F)F)c1cc(S(=O)(=O)N2CCC3(CC2)OCCO3)ccc1F`, the “hERG current change (%, negative = inhibition) at 10uM” value was -17.1%. For `COc1ccc(C2=NCCn3nc4cc([N+](=O)[O-])ccc4c32)cc1` the value was 5.07%; for `CCN(CC)CCCn1c(SCC(=O)Nc2cccc(F)c2)nnc1-c1ccoc1C`, -68.2%.

Turning to `C/C(=N\Nc1ncc(Cl)cc1Cl)c1ccc(OC(F)F)cc1`, the “hERG current change (%, negative = inhibition) at 10uM” value is -50.2%. For `OCC[C@H]1C[C@@H](O)[C@H](O)[C@@]2(CCc3ccccc3O2)O1` the value was 11.2%. With `O=C(Nc1ccc(F)cc1)C1CC2CCC1C2` (stereo not drawn) the figure was 5.38%; with `CCOc1ccccc1NC(=O)CCCc1nc2ccccc2c(=O)[nH]1`, -4.08%; with `CC(=O)c1ccc([C@@H]2C[C@]34CN(Cc5cccc(C(F)(F)F)c5)S(=O)(=O)[C@H]3C[C@H]2O4)cc1`, -17.3%. As to `O=C(CNC(=O)c1ccccc1F)NC1CCN(Cc2ccccc2)CC1`, the “hERG current change (%, negative = inhibition) at 10uM” value amounted to 4.81%. Take `COC1(OC)C=CC(=O)C=C1NC(=O)c1ccccc1OC(C)=O`: the “hERG current change (%, negative = inhibition) at 10uM” value was found to be 1.61%. With `Cc1ccc(-n2c(-c3cc(C)n(C)n3)n[nH]c2=S)cc1` the figure was 24.2%; with `CCCOc1ccc(C(=O)NNC(=S)NC(=O)CC)cc1`, 23.7%. Regarding `NC(=O)CSc1cn(Cc2ccccc2)c2ccccc12`, the “hERG current change (%, negative = inhibition) at 10uM” value came out at 11.3%. Consider `O=C(O)c1cc(C(=O)O)cc(N2C(=O)CSC2=S)c1`, for which the “hERG current change (%, negative = inhibition) at 10uM” value is 15.3%. For `CC1CCN(c2nc3ccccc3nc2C(C#N)C(=O)NC2CCCCC2)CC1` (stereo not drawn) the value was 10.1%. For `O=C(Nc1ccccc1)/C(=C\c1ccco1)NC(=O)c1ccco1` the value was -6.57%; for `C/C(=N\NC(=O)c1cc(C)[nH]n1)c1ccc(-c2ccccc2)cc1`, 9.64%; for `CC1CCc2nc(NC(=O)CCSc3ccccc3)sc2C1` (stereo not drawn), -6.36%. As to `N#CC(Br)Br`, the “hERG current change (%, negative = inhibition) at 10uM” value is recorded as 16.2%.

Regarding `COc1ccc(S(=O)(=O)N2Cc3ccccc3CC2C(=O)N2CCOCC2)cc1OC` (stereo not drawn), the “hERG current change (%, negative = inhibition) at 10uM” value is reported as -18.7%. With `Cc1ccc(NC(=O)c2cnccn2)cc1` the figure was 15.8%; with `COCCCn1c(=O)c2sccc2n(Cc2cccc(F)c2)c1=O`, 4.54%. For `Clc1cccc(NCc2ccccc2)n1` the value was -27.9%; for `COc1cc(/C=C/C(=O)Nc2ccncc2)cc(OC)c1OC`, 4.33%; for `CCCCCN(CCCCC)C(=O)C(CCC(=O)[O-])NC(=O)c1ccc(Cl)c(Cl)c1.[Na+]` (stereo not drawn), 2.18%. On to `COc1ccc(NC(=O)Nc2ccc(Br)c(C)c2)cc1`, for which the “hERG current change (%, negative = inhibition) at 10uM” value is given as 23.5%. As to `CC(OC(=O)Cc1n[nH]c(=O)c2ccccc12)C(=O)Nc1ccc(F)cc1` (stereo not drawn), the “hERG current change (%, negative = inhibition) at 10uM” value is recorded as -13.9%. Regarding `COc1ccc(C(=O)NCCSc2ccccc2)cc1`, the “hERG current change (%, negative = inhibition) at 10uM” value was -7.47%. For `CCN(CC)S(=O)(=O)c1cccc(NC(=O)COC(=O)c2ccc(Br)o2)c1`, the “hERG current change (%, negative = inhibition) at 10uM” value is -18.6%. As for `CC1CCN(S(=O)(=O)c2ccc(S(=O)(=O)NCc3ccco3)cc2)CC1`, the “hERG current change (%, negative = inhibition) at 10uM” value is reported as 2.5%. With `CC(=O)Nc1ccc(S(=O)(=O)N(C)CC(=O)OC(C)C(=O)NC2CCCC2)cc1` (stereo not drawn) the figure was 10.6%.

As to `CC(C)N(C=O)C1(C(=O)NC2CCCCC2)CCCCC1`, the “hERG current change (%, negative = inhibition) at 10uM” value was -1.44%.

On to `Cc1ccc(-c2nc3ccccc3c(=O)n2-c2ccc(O)cc2)cc1`, for which the “hERG current change (%, negative = inhibition) at 10uM” value is on record as -3.92%.

Turning to `COc1cccc(Cn2c(OCC3CCCO3)nc3c2c(=O)n(C)c(=O)n3C)c1` (stereo not drawn), the “hERG current change (%, negative = inhibition) at 10uM” value was -14.2%.

Regarding `CN(C)CCCNc1cc(-c2ccccc2)nc2cc(-c3cccc(F)c3)nn12`, the “hERG current change (%, negative = inhibition) at 10uM” value is on record as -15.9%. On to `Cc1ccccc1CNC(=O)c1ccc2nc(N3CCOCC3)sc2c1`, for which the “hERG current change (%, negative = inhibition) at 10uM” value is recorded as -8.47%. Regarding `c1ccc(-c2nc(NCc3ccco3)c3ccccc3n2)nc1`, the “hERG current change (%, negative = inhibition) at 10uM” value was -62.9%.
